Laboratory results from PubChem BioAssay AID1963576 (National Center for Advancing Translational Sciences (NCATS), 2024).
The whole screen tested about 46,000 compounds, of which about 60 (0.1%) were called active. Inconclusive results (about 3%) are left out. The call rests on the fitted dose curve; in most records, active means well fitted inhibition curve with a large enough effect; inconclusive means small, poorly fitted or top-dose-only effect; inactive means no such curve, though single readings can be large or run the other way. Some of the results follow.

Assay: Primary qHTS assay for Inhibitors of ovarian cancer metastasis using an organotypic tumor microenvironment (TME) model. Further: nearly all actives have a fitted effect of over 65% in size.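 On activity change, negative = inhibition: plate controls were DMSO wells for no effect and tomatine positive control wells for full effect.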
Conditions: SKOV3ip1-GFP adhesion/invasion on 3D omental model, fluorescence; series mostly up to 45.8 µM; activity change, negative = inhibition: at the top concentration
In short: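 qHTS, 4-pt dose (0.36-46 umol/L); SKOV3ip1-GFP, 1,200 cells/well, no FBS; primary omental fibroblast/mesothelial co-culture 48 h pre-grown; 2 h RT + 16 h 37 C; PBS wash, 4% PFA; GFP count 488/509 nm.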

outcome, inactive:
COc1ccccc1N1CCN(C(=O)c2cc3c(=O)n(Cc4ccco4)ccc3nc2C)CC1, CCOC(=O)c1c(S(=O)(=O)N2CCCC(C(=O)N3CCN(c4cccc(C)c4C)CC3)C2)c(C)n(C)c1C (stereo unspecified), O=C(CSc1nc2c(oc3ccccc32)c(=O)n1-c1ccccc1F)Nc1ccccc1, O=C(CN1C(=O)COc2ccc(S(=O)(=O)N3CCOCC3)cc21)NCc1ccc(F)cc1, Cc1ccc(Nc2c3c(nc4nncn24)CCC3)cc1C, CCc1ccc(NC(=O)C2CCN(S(=O)(=O)c3ccc4[nH]c5c(c4c3)CCCCC5)CC2)cc1, O=C(CCn1c(=O)c2ccccc2n(Cc2ccc(F)cc2Cl)c1=O)NCc1ccc2c(c1)OCO2, COc1ccc(-c2ccc3c(N)c(C(=O)NCc4ccc(Cl)cc4)sc3n2)cc1, CCOC(=O)C1CCN(C(=O)C2CCN(C3=NS(=O)(=O)C(c4ccc(C)cc4)=C3CC)CC2)CC1, CCOC(=O)c1noc2ncnc(Nc3ccc(F)cc3F)c12

Activity change, negative = inhibition, inactive:
Cc1ccc(CN2CCSc3ccc(C(=O)N4CCN(c5cc(C)ccc5C)CC4)cc32)cc1 -7.76%, CCOc1cc(S(=O)(=O)n2ccnc2C(C)C)ccc1Cl -11.9%, Cn1c(=O)cc(SCC(=O)N2CCN(c3ccc(F)cc3)CC2)c2ccc(Cl)cc21 0.162%, CC(C)CN1CCc2nc(N3CCN(C)CC3)ncc2C1 0.406%, COc1cc(NC(=O)c2ccccc2)ccc1NC(=O)c1cc2ccccc2o1 3.45%, Cc1cccc(NC(=O)CSc2nc(-c3ccco3)nc3cc(=O)[nH]n23)c1 -17.6%, CC(=O)N1CCc2cc(Br)cc(S(=O)(=O)N3CCC(C(=O)N(C)c4cc(C)ccc4C)CC3)c21 -3.38%, COc1ccc(-c2cc3ccc(O)c(CN4CCOCC4)c3oc2=O)cc1 14.5%, CCOC(=O)c1c(C)oc2nc(C)nc(NCc3ccc(Cl)cc3)c12 4.3%, CCn1cc(C(=O)N2CCN(c3ccccc3F)CC2)c(=O)c2cc(S(=O)(=O)N(C)C3CCCCC3)ccc21 -10.4%, COC(=O)c1c(SC)nc2ccccc2c1OCc1ccccc1C 1.91%, CC(=O)c1ccc(S(=O)(=O)Nc2cccc(-c3ccc(N4CCCCC4)nn3)c2)cc1 8.27%, Cn1cc(S(=O)(=O)N2CCCCCC2)cc1C(=O)N1CCN(c2cccc(Cl)c2)CC1 -0.613%, O=[N+]([O-])c1cc(-c2nc(-c3ccccc3)no2)ccc1N1CCN(c2ccccc2)CC1 1.44%, CCOC(=O)CSc1nc2c(sc3ccccc32)c(=O)n1CCc1ccccc1 -4.59%, Cc1ccc(CNC(=O)C2CCN(c3nc4ccccc4n(C)c3=O)CC2)cc1 14.2%
